From PubChem BioAssay AID463173 (ICCB-Longwood Screening Facility, Harvard Medical School, 2010) come the findings set out here.

The whole screen tested about 52,000 compounds, of which about 4,300 (8.3%) were called active. Cut-off read from the data, not from the text of the source: active = survival mostly below about 52% (no sharp cut-off); inactive = mostly above about 56%. Some of the results follow.

The test system of the assay is DeltatarO mutant. The assay is described as follows: growth inhibition of S. aureus wild type versus tarO mutant, primary screen, teichoic acid synthesis inhibitors, RN4220, OD600 (AID 463173). To be noted: OD600, 18 h, stronger effect = lower value, screened at 18.75 µg/mL (by protocol).
On to `CCOc1ccccc1NC(=O)C(=O)Nc1ccc2nc3n(c(=O)c2c1)CCCCC3`, for which the survival is inactive: 64%.

As to `OCc1cnc(SCc2ccccc2F)n1Cc1ccc(F)cc1`, the survival is inactive: 87%.

With `Nc1n[nH]c2c1C1(CCCC1)Cc1ccccc1-2`, the survival was inactive: 100%.

Turning to `Cc1ccc2cccc(NC(=S)NC(=O)c3ccn(C)n3)c2n1`, the survival was inactive: 78%.

With `O=C(c1ccc2c(c1)N(Cc1ccc(F)cc1)C(=O)c1ccccc1S2(=O)=O)N1CCCCC1`, the survival is inactive: 131%.

`NC(=O)c1cc(S(=O)(=O)N2CCN(c3cccc(C(F)(F)F)c3)CC2)cs1`: the survival is inactive: 87%.

Take `COc1cc(NC(=O)CSc2c3c(nc4ccccc24)CCC3)cc(OC)c1OC`: the survival is inactive: 82%.

Turning to `O=c1[nH]c2cc3c(cc2cc1CN(Cc1ccc2c(c1)OCO2)S(=O)(=O)c1ccc(F)cc1)OCO3`, the survival was inactive: 61%.

With `CCCCCCOc1ccc(C2C(=O)N(C3CCCCC3)CC(=O)N2C2CCCCC2)cc1` (centres undefined), the survival is inactive: 95%.

For the compound `CCN(CC)S(=O)(=O)c1ccc(C(=O)NCCSc2c(-c3ccccc3)[nH]c3ccccc23)cc1`, the survival was inactive: 82%.

In the case of `CCC(=O)N1CCc2cc(S(=O)(=O)NCCC(=O)Nc3ccc(N(CC)CC)cc3C)ccc21`, the survival is inactive: 77%.

With `CCc1c(C)c2cc3c(c(C)c2oc1=O)OCN(CCc1ccccc1F)C3`, the survival is inactive: 101%.

In the case of `CC1CCCCN1S(=O)(=O)c1ccc(S(=O)(=O)NCc2ccc3c(c2)OCO3)cc1` (centres undefined), the survival is inactive: 85%.

Take `O=C(CSc1nc2ccccc2nc1Cc1ccc(Cl)cc1)N1CCN(c2ccccc2)CC1`: the survival was inactive: 84%.

Consider `O=C(CSc1nc(-c2cccc(F)c2)[nH]c1-c1ccccc1)Nc1ccc2c(c1)OCO2`, for which the survival was active: 32%.

In the case of `Cc1ccc(-n2ncc(C(=O)NCc3ccco3)c2C2CCN(C(=O)OC(C)(C)C)CC2)cc1C`, the survival is inactive: 84%.

`COc1cc(NC(=O)c2cc3cc4ccc(C)cc4nc3o2)cc(OC)c1OC`: the survival was inactive: 89%.

For `CCc1ccccc1N(C)C(=O)C1CCCN(c2ncnc3c2nc2n3CCCCC2)C1` (centres undefined), the survival was inactive: 83%.

Regarding `CCOC(=O)C1(Cc2ccc(O)cc2)NC(c2ccccc2F)C2C(=O)N(C)C(=O)C21` (centres undefined), the survival is inactive: 82%.

`CCOC(=O)c1ccc(NC(=O)c2cn3c4c(ccc(Cl)c4c2=O)OC(C)C3)cc1` (centres undefined): the survival is inactive: 72%.

In the case of `COc1cc(OC)c(N(C)C(=O)Nc2cn(CC(C)C)c(=O)c3ccccc23)cc1Cl`, the survival is inactive: 76%.

For the compound `CCCc1nn2c(=O)cc(COC(=O)CNC(=O)COc3ccc(C)cc3)nc2s1`, the survival was inactive: 94%.

On to `Cc1ccc(-c2nc(C)c(CCNC(=O)c3ccccc3Br)s2)cc1`, for which the survival is inactive: 72%.

Turning to `CSc1nc2ccccc2n1CC(=O)Nc1c(C)cccc1C`, the survival is inactive: 93%.

With `COc1ccc(NC2=C(c3ccc(C(F)(F)F)cc3)C(=O)c3ccccc32)cc1`, the survival is inactive: 79%.

In the case of `CCc1ccc(C2C(C#N)=C(N)Oc3cc(N)ccc32)cc1` (centres undefined), the survival is inactive: 102%.

With `CCOc1ccc(C(=O)N(C)CC2COc3ccccc3O2)cc1` (centres undefined), the survival is inactive: 90%.

With `COc1cccc(NC(=O)CN2C(=O)c3ccccc3Sc3ncccc32)c1`, the survival was inactive: 95%.

Take `Cc1ccc(-n2nc(C)c3c(C(F)(F)F)cc(-c4cccnc4)nc32)cc1Cl`: the survival is inactive: 53%.

Turning to `COc1ccccc1C(=O)Nc1c(C(=O)NC(C)(C)C)oc2ccccc12`, the survival was inactive: 99%.

As for `CCc1ccc(Nc2nc3ccccc3nc2NS(=O)(=O)c2ccccc2)cc1`, the survival was active: 28%.

In the case of `Cc1cccc(-n2c(=O)c3ccccc3n(Cc3ccc(F)cc3)c2=O)c1`, the survival was inactive: 77%.

For the compound `COc1ccc(NC(=O)C2=C(C)Nc3nc(SCc4ccc(Cl)cc4)nn3C2c2cccc(OC)c2OC)cc1` (centres undefined), the survival was inactive: 67%.

Regarding `O=C(Cn1c(=O)nc(-c2ccccc2)c2ccccc21)Nc1ccc(Cl)cc1F`, the survival is inactive: 73%.

For `CCCCOC(=O)c1ccc(NC(=O)c2sc3nc(C)cc(C)c3c2N)cc1`, the survival is inactive: 65%.

As for `COc1ccc(N(C)C(=O)Cn2cc(S(=O)(=O)N3CCN(c4ccccc4F)CC3)c3ccccc3c2=O)c(OC)c1`, the survival was inactive: 97%.

In the case of `CC1CCN(c2ccc(-c3cccc(NS(=O)(=O)c4ccc(F)cc4F)c3)nn2)CC1`, the survival was inactive: 102%.

For `CC1CCN(C(=O)CSc2nc(-c3ccc(F)cc3)cc(C(F)(F)F)n2)CC1`, the survival was active: 37%.

Regarding `CCOC(=O)c1sc(NC(=O)c2c(-c3ccccc3)c(-c3ccccc3)nn(C)c2=O)nc1C`, the survival is inactive: 48%.

With `Cn1c(=O)c(C(=O)NC2CCCCCC2)c(O)c2ccccc21`, the survival is inactive: 65%.

Take `Cc1nc2cccnc2n1C1CCN(C(=O)Nc2ccc(Cl)cc2)CC1`: the survival is inactive: 81%.

In the case of `COC(=O)Cc1c(C)c2ccc3c(c2oc1=O)CN(Cc1ccccc1Cl)CO3`, the survival was inactive: 84%.

For `CCOc1ccc(-c2c(C)nn3c(C)c(C(=O)NCCc4ccc(C)cc4)cnc23)cc1OCC`, the survival was inactive: 77%.

For the compound `CCc1c(C)sc2c1CCN(Cc1ccccc1F)C2c1ccccc1` (centres undefined), the survival was inactive: 102%.

Consider `O=C(NCCSc1c[nH]c2ccccc12)c1ccccc1Cl`, for which the survival was inactive: 57%.

For the compound `COc1ccc(NC(=O)C2CCN(S(=O)(=O)c3c(C)noc3/C=C/c3cccs3)CC2)cc1Cl`, the survival was inactive: 80%.

For the compound `c1ccc(-c2cc3n(c2)CCc2ccccc2-3)cc1`, the survival was inactive: 76%.

Regarding `O=S(=O)(NC1CCCCC1)c1ccc(S(=O)(=O)N2CCN3CCCC3C2)cc1` (centres undefined), the survival is inactive: 92%.

For the compound `COc1cccc(Cn2cc(C(=O)c3ccc(Cl)cc3)c(=O)c3ccccc32)c1`, the survival was inactive: 96%.

In the case of `N#C/C(=C\c1ccc(-c2ccc(Br)cc2)o1)C(=O)OC1CCCCC1`, the survival was inactive: 104%.

Take `CCSc1ncc(Cl)c(C(=O)Nc2cccc(Cl)c2)n1`: the survival is inactive: 59%.

In the case of `COC(=O)c1ccc(CSC(=N)N)o1`, the survival was inactive: 69%.

As to `CCSc1nnc(CNc2ccc(F)cc2)n1-c1ccc(C)cc1`, the survival was inactive: 87%.

With `COCCNC(=O)c1ccccc1NC(=O)c1nsc2ccccc12`, the survival is inactive: 77%.

As to `CNC(=O)CN1C(=O)COc2ccc(S(=O)(=O)N3CCC(C)CC3)cc21`, the survival was inactive: 86%.

Consider `CCc1cc2c(cc3c(=O)n(CC(=O)NCCc4ccc(OC)cc4OC)nc(CC)n32)s1`, for which the survival was inactive: 83%.

For the compound `COc1ccc2[nH]cc(CCN=C(NC(=O)c3ccccc3OC)Nc3nc(C)cc(C)n3)c2c1`, the survival was inactive: 70%.

`COC(=O)Cn1c(SCCOc2ccccc2OC)nc2ccccc21`: the survival is inactive: 51%.

For the compound `Cc1cc2[nH]c(=O)c(=O)[nH]c2cc1S(=O)(=O)N1CCN(c2cccc(Cl)c2)CC1`, the survival was inactive: 76%.

In the case of `CC(C)CCOc1ccc(C(=O)NCC2OCCc3ccccc32)cc1` (centres undefined), the survival was active: 39%.

`COc1ccc(-c2noc(CCC(=O)N(C)c3cc(Cl)ccc3OC)n2)cc1`: the survival is active: 26%.

Regarding `COc1cccc(-n2c(=O)c3cc(OC)c(OC)cc3n(CC(=O)Nc3ccc(F)cc3)c2=O)c1`, the survival was inactive: 73%.

Regarding `COc1ccc(-n2c(SCC(=O)NCc3ccc(Cl)cc3)nc3ccsc3c2=O)cc1`, the survival was inactive: 68%.

As to `Cc1ccc(NC(=O)CCCc2nc(-c3ccco3)no2)cc1Cl`, the survival was inactive: 80%.

With `COc1ccc(-n2nnnc2C2CCN(S(=O)(=O)c3cccc(C(F)(F)F)c3)CC2)cc1`, the survival was inactive: 83%.

As to `COc1cccc(NC(=O)C(Cc2ccccc2)N2Cc3ccccc3C2=O)c1` (centres undefined), the survival was inactive: 66%.

Turning to `Cc1cc2c(cc1NS(=O)(=O)c1ccc(Br)cc1)n(C)c(=O)c(=O)n2C`, the survival was inactive: 109%.

Take `COc1cccc(Cn2nc(SC)c(S(=O)(=O)c3ccccc3)c2N(C(C)=O)C(C)=O)c1`: the survival was inactive: 72%.

As for `CCCSCCCNC(=O)c1ccc(C)c(NC(=O)c2nsc3ccccc23)c1`, the survival was inactive: 101%.

As to `COc1cc(NC(=O)c2cccc(Cl)c2Cl)ccc1NC(=O)c1cc2ccccc2o1`, the survival was inactive: 64%.

Turning to `CCS(=O)(=O)N1CCCc2cc(C(=O)Nc3cccc(C(C)=O)c3)ccc21`, the survival is inactive: 89%.

Consider `CCCn1c2ccc(F)cc2c2nnc(SCCN3CCCCC3)nc21`, for which the survival is inactive: 187%.

`CCC(=O)N1CCc2cc(Br)cc(S(=O)(=O)CCC(=O)Nc3cccc(Cl)c3)c21`: the survival was inactive: 81%.

On to `CCCc1cnc2c(c1SCC(=O)Nc1ccccc1OCC)c(=O)n(C)c(=O)n2C`, for which the survival was inactive: 72%.

For `Clc1ccc(-c2nnn3c2nc(NC2CCCCC2)c2ccccc23)cc1`, the survival was active: 17%.

Turning to `CCOc1ccc(Nc2ncnc3c2c(-c2ccccc2)cn3-c2cccc(C)c2)cc1`, the survival is inactive: 115%.

Consider `O=S(=O)(N1CCCCC1)N1CCNCC1`, for which the survival is inactive: 95%.

On to `CCOc1ccc(C(=O)N(Cc2ccc(C(C)C)cc2)Cc2ccco2)cc1`, for which the survival was inactive: 68%.

As for `CCOc1ccc(NCc2cccn2-c2nnc(N3CCC(C(=O)NCc4ccccc4Cl)CC3)s2)cc1`, the survival is inactive: 84%.

With `O=C(c1ccc(F)cc1)N1CCc2c([nH]c3ccccc23)C1c1ccc(Cl)cc1` (centres undefined), the survival was inactive: 55%.

Turning to `CCc1ccc(OCCSc2nc3ccccc3n2CC(=O)N2CCCCC2)cc1`, the survival is active: 40%.

With `COc1ccc(Cl)cc1NC(=O)N1CCN(S(=O)(=O)c2ccc3c(ccn3C)c2)CC1`, the survival is inactive: 92%.

On to `CC(C)(C)OC(=O)N1CCC(c2c(C(=O)NCc3cccs3)cnn2-c2cccc(F)c2)CC1`, for which the survival is active: -5%.

For the compound `COc1ccc(CC(=O)N2CCc3cc(OC)c(OC)cc3C2COc2ccc(F)cc2)cc1` (centres undefined), the survival was inactive: 67%.

Take `c1ccc2[nH]c(CSc3nnnn3C3CCCCC3)nc2c1`: the survival was inactive: 95%.

Take `COc1cc2c(cc1OC)C(c1cccc(Cl)c1)CC(=O)N2` (centres undefined): the survival is inactive: 63%.

`COc1ccc(N2CCN(S(=O)(=O)c3ccc(F)c(C(=O)Nc4ccccc4Cl)c3)CC2)cc1`: the survival was inactive: 96%.

As for `Cn1nc(-c2ccccc2F)c2cc(C(=O)NCc3ccccc3Cl)sc21`, the survival is active: 56%.

For `CCn1cc(C(=O)O)c(=O)c2cc(F)c(N3CCN(C(=O)c4ccccc4F)CC3)cc21`, the survival was active: 3%.
